Consider 42 sequences from publication PMC7819943, “Rice protein-binding microarrays: a tool to detect cis-acting elements near promoter regions in rice”.

The list shows a part of the results.

For this assay, the target named is T1, OsWOX13 (Oryza sativa, UniProt Q5QMM3 1-267).
T1 sequence: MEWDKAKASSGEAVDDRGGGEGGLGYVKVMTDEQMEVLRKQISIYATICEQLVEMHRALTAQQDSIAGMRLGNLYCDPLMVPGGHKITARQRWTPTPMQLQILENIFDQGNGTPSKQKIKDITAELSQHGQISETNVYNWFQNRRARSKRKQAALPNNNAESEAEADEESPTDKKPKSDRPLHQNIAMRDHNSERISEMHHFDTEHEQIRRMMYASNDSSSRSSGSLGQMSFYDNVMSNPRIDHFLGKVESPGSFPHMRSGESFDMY
The assay is described as follows: protein-binding microarray (RPBM); PBS, 2% BSA, 51.3 ng/ul salmon testes DNA, 50 uM zinc acetate, 200 nM TF, 25 C, 1 h; high values mean tight binding. Particulars: protein: recombinant; tags: N-terminal polyhistidine and DsRed monomer fusion (pET32a); label: CyDye5-dUTP incorporated in the synthesized complementary strand; 3' TTTTT single-stranded linker to array surface; dsDNA, one strand shown. The essentials: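 The binding signal for each feature is its fluorescence intensity in arbitrary units. An Axon 4000B scanner was used to read a custom Agilent array that had been made double-stranded with Cy5-dUTP primer extension, blocked with 2% BSA, incubated at 25 °C for 1 h with 200 nM protein in PBS, 2% BSA, salmon testes DNA and 50 µM zinc acetate, and washed. The protein was an N-terminal polyhistidine–DsRed transcription factor fusion from E. coli BL21-CodonPlus, purified on Ni–NTA.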
For “CTTTAATTTATGTATTGTGTTCAATGCTTCAATCACTTGACGGAGTCACCTAGTGCAG”, the binding signal is 19200 fluorescence intensity (a.u.). In the case of “ATGTCAATTTGCCACATCACGGTAACAACTTGAAGTACACCGGAGTCACCTAGTGCAG”, the binding signal was 13100 fluorescence intensity (a.u.). As to “GATTGATTTGAAACCAATTCATTGGTATTACCTAATCTAGCGGAGTCACCTAGTGCAG”, the binding signal was 43800 fluorescence intensity (a.u.). As for “ACGTGTACGGCGCGGGGTGGAGGTGAGGGGTGGTGGGGCCCGGAGTCACCTAGTGCAG”, the binding signal was 5960 fluorescence intensity (a.u.). “TTCAAATGGCATTAATTACAAAGGGAACGTAACTCATCTGCGGAGTCACCTAGTGCAG”: the binding signal was 18700 fluorescence intensity (a.u.).

For the sequence “GAAAATAGTATGATTGAAAATGACGTAAAGTGAATAGACCCGGAGTCACCTAGTGCAG”, the binding signal was 23000 fluorescence intensity (a.u.).

On to “TTATTAACTGATGATCATCTACATGGTTGTTCTTACACTGCGGAGTCACCTAGTGCAG”, for which the binding signal is 32700 fluorescence intensity (a.u.). With “ATTCATTGGAAAATAATTGTTTGCGTCACGTGTGGATATCCGGAGTCACCTAGTGCAG”, the binding signal was 6110 fluorescence intensity (a.u.). On to “TGTTGATTATATTCATGTATTTCTATAATGCTTTACAATTCGGAGTCACCTAGTGCAG”, for which the binding signal was 17600 fluorescence intensity (a.u.).

On to “CGGGCGACTAATTTTGTAAAATTTTGAAACACAAAATTAGCGGAGTCACCTAGTGCAG”, for which the binding signal was 4760 fluorescence intensity (a.u.). Regarding “GCTTTAATTGGTTTGAGGTTGTATACTATTGGTTCGGCCTCGGAGTCACCTAGTGCAG”, the binding signal is 35300 fluorescence intensity (a.u.). For the sequence “AAATTATAGATTTAGTGTCAATTTAATCATAAAACTTGGACGGAGTCACCTAGTGCAG”, the binding signal was 10200 fluorescence intensity (a.u.). As for “TGCACAAATTGGTATAATGATTTCTTGATGTTACAATATTCGGAGTCACCTAGTGCAG”, the binding signal was 27700 fluorescence intensity (a.u.). The figure for “TTATCTAATCGCAGATAATTGCAGAGAAACTGTGATCTTTCGGAGTCACCTAGTGCAG” is 6720 fluorescence intensity (a.u.); for “ATGACATTTAATTTATGTGTCTATTCATGTCGAGAAGGCTCGGAGTCACCTAGTGCAG” it is 18600 fluorescence intensity (a.u.). Take “ATAATTTTGTTAATTTGTTACATGTATATGATGCATAATACGGAGTCACCTAGTGCAG”: the binding signal was 32100 fluorescence intensity (a.u.). To “ATCGCTGTCACGTTTTCCATCATCTTCCCCATCTACACGTCGGAGTCACCTAGTGCAG” belongs 3920 fluorescence intensity (a.u.); to “TATGTTAATTAGGCCGATAGAGCCAAAGTCTCGAACCAAACGGAGTCACCTAGTGCAG”, 4230 fluorescence intensity (a.u.); to “ATATATATATATATATATATAGACGTATTCCTGTATCCGCCGGAGTCACCTAGTGCAG”, 11700 fluorescence intensity (a.u.).

Turning to “ACGTAATTATAATTTATTTTATTATGAGTTGTTTTATCACCGGAGTCACCTAGTGCAG”, the binding signal was 37000 fluorescence intensity (a.u.).

For “TCTTAATAGAGGGTTTCTAAAATATGTGGGTAATTTGTTGCGGAGTCACCTAGTGCAG”, the binding signal was 5970 fluorescence intensity (a.u.). To “AGGAATTGAAGGGTAAAACAGAGGATTGCAAAACACAGGACGGAGTCACCTAGTGCAG” belongs 3260 fluorescence intensity (a.u.); to “GAAATTCAAATTTCATTTGATGTTAAACGCGGATAGGGAGCGGAGTCACCTAGTGCAG”, 3460 fluorescence intensity (a.u.). The figure for “ACAAAGATTGAAAATGGTGGTAAATTTACAATGGCCTCTTCGGAGTCACCTAGTGCAG” is 31100 fluorescence intensity (a.u.); for “ATTTGCTAATGAACTGAAATTTCTAATCTGAAACTCTGAACGGAGTCACCTAGTGCAG” it is 3820 fluorescence intensity (a.u.); for “AAACTAATGAATGAATAAACATATTATATATTACCTCTGCCGGAGTCACCTAGTGCAG” it is 7830 fluorescence intensity (a.u.). In the case of “GTCTGAATAATTGCCACTTAAGCAGAGTACTGAAAAGTTACGGAGTCACCTAGTGCAG”, the binding signal was 9240 fluorescence intensity (a.u.). As to “CCTACTTAAATTGGCTTAAAACATGCTGGGGCATCAGGTTCGGAGTCACCTAGTGCAG”, the binding signal is 16100 fluorescence intensity (a.u.). The figure for “ATCGTAATAGAATATGTCACATTCGGTTTTGGCTCAAGTTCGGAGTCACCTAGTGCAG” is 5710 fluorescence intensity (a.u.); for “AGGGGATGGGGATGGGGATGGAGACGGGGACTTGGAACGACGGAGTCACCTAGTGCAG” it is 3880 fluorescence intensity (a.u.); for “CATAATTGATCAAGCCATGCAAAACCCAAAGGAGAACCGTCGGAGTCACCTAGTGCAG” it is 51700 fluorescence intensity (a.u.). In the case of “TAGGATTGCAGATAACTTGATCATTATCCTAGTCGGGCCGCGGAGTCACCTAGTGCAG”, the binding signal is 3840 fluorescence intensity (a.u.). As for “CATAACTGTATAAACATTCAGTAAAGAATTTCCGTTTACGCGGAGTCACCTAGTGCAG”, the binding signal is 5600 fluorescence intensity (a.u.). For “TTAAAACAATGGTGATAAATTGAATTGAGAGTGGTGGGGACGGAGTCACCTAGTGCAG”, the binding signal was 6690 fluorescence intensity (a.u.).

As for “ACAAATGTGGTGATCAATAATTAGTAGTACTTGTTTGTTGCGGAGTCACCTAGTGCAG”, the binding signal is 9950 fluorescence intensity (a.u.).

On to “ATCTCCAAAATTTTAAATTTTAATTAAAACCTAACTTACACGGAGTCACCTAGTGCAG”, for which the binding signal is 6930 fluorescence intensity (a.u.). With “CCATAGCTAGCTGCGCATGTGATTGATGCAAAGGAGGAACCGGAGTCACCTAGTGCAG”, the binding signal is 4440 fluorescence intensity (a.u.). On to “CTTATCTGTCATGATTATCATTAGTTTTATGATAAACTTACGGAGTCACCTAGTGCAG”, for which the binding signal is 22600 fluorescence intensity (a.u.). Turning to “CTAAATTAACGCTGGCAACACGAGTTCAGGGGTTGTAAAACGGAGTCACCTAGTGCAG”, the binding signal was 6080 fluorescence intensity (a.u.).

Turning to “CATGTAGTAATTATCTTCAATGGCAATGCAGCAGTATTTGCGGAGTCACCTAGTGCAG”, the binding signal is 3520 fluorescence intensity (a.u.).

On to “AATCACGTCCTTAATTAATCACGCGCTAATGGACCGCTCACGGAGTCACCTAGTGCAG”, for which the binding signal is 14300 fluorescence intensity (a.u.). As to “ACCGACCAATGATGATTTGATTTCCCACTGGACTGGTATACGGAGTCACCTAGTGCAG”, the binding signal was 15300 fluorescence intensity (a.u.).
